This is one part of the list. Viral Rep nickase domains cut single-stranded DNA in vitro for 1 h at 37 °C with 3 µM enzyme; only the middle of the 90-letter strands is printed. A value is the log2 ratio of uncut reads to the pool without enzyme; more negative means more cut, near 0 not cut, and no call is made. The scaling is to total reads, so uncut sequences can rise above 0 when many others are cut.
Tests used:
Assay in all cases: uncleaved DNA left, log2 of reads against the no-enzyme library (log2 ratio); higher = less cleavage (more negative = more Rep cleavage of the k-mer); sequences stand for … in CTCGTCCG…ACCGGAGA
[1] = test system: T1, Rep nickase domain of Muscovy duck circovirus
T1 sequence (residues 1-111 of Rep, tag left off): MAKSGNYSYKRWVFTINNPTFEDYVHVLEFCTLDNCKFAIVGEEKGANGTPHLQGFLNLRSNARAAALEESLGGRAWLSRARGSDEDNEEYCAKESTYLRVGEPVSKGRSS
Experimental: (§1)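 A pool of 90-nt single-stranded DNAs with seven random bases just before the constant AC of the nick site (name = the seven bases) was cut by 3 µM recombinant His6-SUMO-tagged Rep nickase domain (300 nM DNA, 50 mM HEPES pH 8.0, 50 mM NaCl, 1 mM MnCl2, 1 h, 37 °C, three replicates). Uncut DNA was amplified and sequenced.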

[2] = test system: T2, Rep nickase domain of banana bunchy top virus
T2 sequence (residues 1-94 of Rep, tag left off): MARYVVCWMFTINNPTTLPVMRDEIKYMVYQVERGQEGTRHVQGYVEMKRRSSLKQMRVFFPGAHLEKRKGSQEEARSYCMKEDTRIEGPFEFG
Experimental: as §1

[3] = test system: T3, Rep nickase domain of cabbage leaf curl virus
T3 sequence (residues 1-116 of Rep, tag left off): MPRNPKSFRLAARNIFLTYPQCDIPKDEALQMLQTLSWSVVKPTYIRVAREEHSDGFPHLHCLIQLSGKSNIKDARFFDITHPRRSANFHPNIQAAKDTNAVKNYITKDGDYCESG
Experimental: as §1

[4] = test system: T4, Rep nickase domain of chickpea chlorotic dwarf virus
T4 sequence (residues 1-124 of Rep, tag left off): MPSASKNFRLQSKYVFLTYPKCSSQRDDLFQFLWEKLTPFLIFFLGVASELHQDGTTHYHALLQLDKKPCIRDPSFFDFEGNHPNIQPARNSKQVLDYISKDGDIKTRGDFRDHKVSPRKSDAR
Experimental: as §1

[5] = test system: T5, Rep nickase domain of faba bean necrotic yellows virus
T5 sequence (residues 1-98 of Rep, tag left off): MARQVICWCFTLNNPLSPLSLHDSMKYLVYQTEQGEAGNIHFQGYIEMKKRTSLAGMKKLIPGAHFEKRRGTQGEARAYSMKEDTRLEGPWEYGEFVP
Experimental: as §1

[6] = test system: T6, Rep nickase domain of maize striate mosaic virus
T6 sequence (residues 1-117 of Rep, tag left off): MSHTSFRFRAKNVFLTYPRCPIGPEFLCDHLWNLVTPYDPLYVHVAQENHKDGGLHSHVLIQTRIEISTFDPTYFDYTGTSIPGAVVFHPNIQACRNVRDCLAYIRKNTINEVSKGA
Experimental: as §1

[7] = test system: T7, Rep nickase domain of porcine circovirus 2
T7 sequence (residues 2-116 of Rep, tag left off): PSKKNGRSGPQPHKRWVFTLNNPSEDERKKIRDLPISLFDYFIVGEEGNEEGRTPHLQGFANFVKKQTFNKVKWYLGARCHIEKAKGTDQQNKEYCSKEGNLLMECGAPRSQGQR
Experimental: as §1

[8] = test system: T8, Rep nickase domain of tomato golden mosaic virus
T8 sequence (residues 1-124 of Rep, tag left off): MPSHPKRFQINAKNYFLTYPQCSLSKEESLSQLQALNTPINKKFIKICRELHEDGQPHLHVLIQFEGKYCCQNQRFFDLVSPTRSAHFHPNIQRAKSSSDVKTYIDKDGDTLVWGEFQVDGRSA
Experimental: as §1

[9] = test system: T9, Rep nickase domain of tomato yellow leaf curl virus
T9 sequence (residues 1-136 of Rep, tag left off): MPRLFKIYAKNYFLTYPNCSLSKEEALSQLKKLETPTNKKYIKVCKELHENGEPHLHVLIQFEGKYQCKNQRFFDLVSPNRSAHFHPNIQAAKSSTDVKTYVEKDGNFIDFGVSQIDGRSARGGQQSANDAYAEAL
Experimental: as §1

[10] = test system: T10, Rep nickase domain of wheat dwarf virus
T10 sequence (residues 1-137 of Rep, tag left off): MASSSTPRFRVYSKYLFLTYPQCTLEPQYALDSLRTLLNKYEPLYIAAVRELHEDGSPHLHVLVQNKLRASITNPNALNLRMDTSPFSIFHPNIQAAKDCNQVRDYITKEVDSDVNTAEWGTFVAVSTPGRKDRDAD
Experimental: as §1

Sequence	uncleaved DNA left (log2) [1]	uncleaved DNA left (log2) [2]	uncleaved DNA left (log2) [3]	uncleaved DNA left (log2) [4]	uncleaved DNA left (log2) [5]	uncleaved DNA left (log2) [6]	uncleaved DNA left (log2) [7]	uncleaved DNA left (log2) [8]	uncleaved DNA left (log2) [9]	uncleaved DNA left (log2) [10]
GGTAGCC	0.169	0.194	0.576	1.18	0.0255	1.38	0.154	0.126	0.18	0.217
CTCTTCC	-0.0632	0.0119	0.0851	-0.356	0.0765	-0.49	0.0118	-0.0803	-0.211	-0.0383
CTCCCTG	-0.0993	-0.234	-0.315	-0.623	-0.155	-0.502	-0.0903	-0.164	-0.184	-0.204
TCATGCG	-0.0751	-0.0406	-0.0499	1.18	0.0165	0.96	0.067	-0.00805	-0.0858	-0.116
AAAACAT	0.081	0.115	-0.0104	-0.841	0.0733	0.68	0.0166	0.0246	0.0817	0.19
TACCACA	-0.116	0.0116	-0.223	-2.49	0.0886	-0.401	-0.648	-0.0267	0.0319	-0.064
ATTGAGA	0.0878	-0.023	-0.435	-0.48	0.0678	-1.25	0.17	0.0413	0.0622	0.0994
GGGCGCT	-0.0125	0.0561	0.684	1.6	-0.0975	2.07	0.00476	-0.0364	-0.016	0.129
GCAATTT	-0.0862	-0.0427	-0.115	-1.65	-0.00564	-0.341	-0.0694	-0.0744	-0.0166	-0.139
TAAGGGT	-0.0447	0.0786	0.381	2.87	-0.0496	1.71	-0.0281	0.102	-0.0885	-0.0296
ATGTGTG	-0.0848	-0.128	-0.78	-0.244	0.0164	-0.899	0.119	-0.106	0.0448	-0.0917
CGACTCA	0.0755	-0.0178	0.0777	0.398	0.0657	1.1	-0.0624	-0.00756	-0.0632	0.00346
CGGCGGA	0.142	0.141	-0.142	0.358	0.0219	0.388	0.182	0.186	-0.0524	-0.101
TGGCGAT	0.18	0.102	0.057	0.575	0.0918	0.495	0.186	0.0705	0.0564	0.0681
ACTTGGG	0.109	0.144	-0.48	0.295	0.0847	-0.367	0.203	0.0638	0.243	0.0195
TTAACTT	-0.0764	-0.0829	-0.306	-2.58	0.0631	-0.0652	-0.417	-0.114	0.125	-0.0622
ATGTTGA	0.00928	0.0335	-0.205	-0.318	0.148	-0.915	-0.16	-0.0478	-0.0852	-0.119
GCTTCTC	-0.0607	0.0592	0.218	0.416	-0.103	0.104	0.0138	-0.0222	0.0758	0.0251
CCCGGCG	-0.142	-0.0808	-0.614	0.361	0.0423	-0.418	0.2	-0.0564	0.027	-0.112
CCCAGCG	-0.0961	-0.139	-0.749	0.389	-0.11	-0.61	0.0457	-0.0595	-0.0433	-0.0647

Sequence	uncleaved DNA left (log2) [1]	uncleaved DNA left (log2) [2]	uncleaved DNA left (log2) [3]	uncleaved DNA left (log2) [4]	uncleaved DNA left (log2) [5]	uncleaved DNA left (log2) [6]	uncleaved DNA left (log2) [7]	uncleaved DNA left (log2) [8]	uncleaved DNA left (log2) [9]	uncleaved DNA left (log2) [10]
GGCGCCA	0.0833	-0.00406	0.298	0.823	0.00286	1.53	-0.0416	0.0717	-0.032	0.117
CTTAAGT	0.0891	0.092	-0.0934	-0.535	0.0421	-1.02	-0.0555	-0.0154	0.111	-0.103
CCCACTG	-0.00718	0.00717	-0.18	0.207	-0.108	0.99	0.00989	-0.107	-0.182	0.0224
TTTAGCC	0.0178	-0.000401	-0.0647	-0.475	-0.107	-1.1	0.0111	-0.0429	0.00663	-0.0196
AGTTAAA	0.0251	-0.0413	0.0692	0.272	0.0727	-0.193	-0.294	0.126	0.00807	0.173
ACGCCCG	0.14	0.104	-0.716	-0.405	0.0886	-0.862	0.175	0.114	0.108	-0.0575
AGGTAGC	0.108	0.0892	-0.194	-0.302	0.0378	-0.676	0.186	0.0769	0.087	0.104
GAAGTCA	0.0612	0.00114	0.191	-0.0908	-0.0526	0.724	0.0361	-0.0794	0.0552	0.00702
AATAGCC	0.0897	0.0499	-0.167	-0.446	0.109	-1.23	0.129	0.0765	0.0286	0.0116
CCCCAAA	-0.254	-0.273	-0.185	-0.413	-0.133	-0.905	-0.292	-0.224	-0.211	-0.224
CCTGGCA	-0.021	-0.127	-0.319	-0.56	0.0055	-1	-0.128	-0.124	-0.0263	-0.0716
CCCCGAA	0.108	-0.021	-0.00236	0.0107	-0.0745	-0.517	-0.16	0.0248	-0.108	-0.123
TGGGTAC	0.102	0.156	0.761	1.66	0.0554	1.9	0.335	0.0655	0.105	0.124
TTGAACA	-0.0794	-0.0138	0.147	-0.959	-0.13	0.333	-0.149	-0.0865	0.0384	-0.0678
CGAACTT	0.0277	0.0302	-0.0216	0.0377	-0.0258	1.28	-0.024	-0.0936	-0.114	0.161
ACATTCG	0.064	0.0429	-0.174	1.3	0.0525	0.786	0.233	-0.0186	0.172	0.08
CAAGGTA	0.0375	0.0993	0.294	0.7	0.134	1.22	0.155	0.125	0.0178	0.0513
ATTGCCC	-0.0455	-0.0968	-0.425	-0.453	-0.0365	-0.749	-0.181	-0.0912	-0.177	-0.0846
CGTTCTT	-2.48	-0.29	-0.0679	-1.44	0.0693	0.085	-2.73	-0.185	-0.000335	-0.116
ATACGCC	-0.0421	-0.00653	-0.277	-0.678	0.0372	-0.971	0.0431	-0.0699	-0.0661	-0.206

Sequence	uncleaved DNA left (log2) [1]	uncleaved DNA left (log2) [2]	uncleaved DNA left (log2) [3]	uncleaved DNA left (log2) [4]	uncleaved DNA left (log2) [5]	uncleaved DNA left (log2) [6]	uncleaved DNA left (log2) [7]	uncleaved DNA left (log2) [8]	uncleaved DNA left (log2) [9]	uncleaved DNA left (log2) [10]
GCCAGGA	-0.0556	-0.0879	0.191	0.473	-0.00651	0.138	0.0146	0.00172	-0.0499	0.0432
GATAGTC	0.149	0.0176	0.309	0.559	0.085	0.367	0.151	0.0754	0.14	0.0305
AAAGTTC	0.122	-0.0458	-0.164	-2.17	0.0177	-0.528	-0.0816	-0.0193	-0.00749	-0.281
TCTGGGA	0.163	0.0223	0.16	0.232	-0.0583	-0.155	0.0718	-0.0956	-0.0255	-0.0479
GAGCGAA	0.0288	0.0494	-0.0429	0.46	0.0325	0.832	-0.0511	0.0615	-0.0171	0.0533
GGATTGA	0.0971	0.106	0.503	1.3	0.0587	1.46	0.207	0.0799	0.0884	0.227
CAACGGA	0.0312	0.021	0.0397	-0.0241	0.0354	-0.291	0.0599	0.0524	-0.00836	-0.0413
AGTTTTT	-3.09	-1.79	-0.073	-1.54	-0.52	0.111	-3.67	-0.0518	-0.0216	-0.0798
GGCAACA	-0.174	-0.0236	0.543	1.17	-0.0302	1.78	0.159	-0.0431	-0.0884	0.0688
ACCTATC	0.0188	-0.141	-0.211	-0.389	-0.0323	-0.994	-0.0724	-0.0106	-0.0441	-0.0136
CCCGTGC	-0.0641	-0.0661	-0.489	-0.564	0.0621	-0.924	0.141	-0.107	-0.0369	0.0628
GACAGTC	-0.057	0.0609	0.52	1.15	-0.0361	1.32	0.146	-0.0371	0.0142	0.031
GCCACCC	-0.203	-0.107	0.048	0.201	-0.222	0.155	-0.742	-0.17	-0.167	-0.0819
CCAGCCC	-0.102	0.00842	0.0415	-0.323	0.14	-0.37	-0.0285	0.00288	0.0366	-0.0435
ACTTTCG	-0.106	-0.0459	-0.751	0.511	-0.0523	-0.431	0.0499	-0.0691	-0.0452	-0.168
GCCTGCT	-0.462	-0.0566	-0.393	-0.458	-0.0218	-0.767	-1.75	0.0455	-0.105	-0.199
ATCCTCG	-0.141	-0.0272	-0.956	-0.459	-0.139	-1.21	0.0573	-0.171	-0.117	-0.131
CCGGGTC	0.0519	-0.0353	0.405	0.681	-0.186	1.6	0.168	-0.0541	0.0521	0.00592
GCGCCCC	0.0642	0.131	0.221	0.5	0.139	0.445	0.0639	-0.00514	0.104	0.14
GTGCCAA	0.0446	0.0592	0.452	1.03	-0.0129	1.72	0.179	0.168	0.167	0.19
